For two compounds, GI50 and TGI results are on record in PubChem BioAssay (NCI).

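Compound exposure: 48 hours, 5 concentrations, 96-well plates. GI50 = concentration required for 50% inhibition of growth. TGI is the concentration that stops growth completely.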

In this assay the test system is NCI-H322M lung. Briefly: NCI anticancer screen, dose series, 48 h.

Take `Cc1ccc2c(c1)nc(-c1ccccc1)n2CC(=O)N=Nc1c(O)[nH]c2ccc(Cl)cc12`: the GI50 was 1.88 µM and the TGI was determined as 4.02 µM.

As for `O=C(CSc1nc2sc3c(c2c(=O)n1-c1ccc(Cl)cc1)CCCC3)N/N=C/C=C/c1ccccc1`, the GI50 is 21.5 µM and the TGI is above 100 µM.
